Assay results taken from PubChem BioAssay (NCI).
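Protocol summary: plate cells (96-well), add compound at 5 concentrations, incubate 48 h, interpolate endpoints linearly. Here, GI50 denotes the concentration required for 50% inhibition of growth. The concentration for full growth arrest is given as TGI.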

System: NCI-H322M lung
Test: NCI-60 cell line screen, 48 h

## COc1cc(/C=C/C(=O)c2cnn(-c3cc(=O)[nH]c4ccc(Br)cc34)c2C)cc(OC)c1OC
  GI50: 2.94 µM
  TGI: 12.7 µM

## O=C(Nc1ccc(F)c(Cl)c1)c1cc(-c2ccc(F)cc2F)ccc1O
  GI50: 2.82 µM
  TGI: 23.1 µM
